US20060148705A1 (Regeneron, published 2006)

Assays:
human VEGF165 [1] = target: T1, human VEGF165 (human, UniProt P15692-4 27-191); test: BIAcore (SPR), as described in WO/0075319
T1 construct: also called hVEGF165
T1 sequence (looked up): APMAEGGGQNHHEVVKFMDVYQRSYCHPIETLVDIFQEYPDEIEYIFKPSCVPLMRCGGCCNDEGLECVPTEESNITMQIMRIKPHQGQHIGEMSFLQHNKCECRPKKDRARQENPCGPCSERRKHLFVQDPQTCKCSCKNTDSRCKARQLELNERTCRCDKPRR

human VEGF165 [2] = target: T1, human VEGF165; test: affinity determination for human VEGF-165 binding to trap dimer
human VEGF165 [3] = target: T1, human VEGF165; test: half-life of dissociation from hVEGF165, as described in WO/0075319

- T1/2 (human VEGF165 [1]): 4.53 h
- Kd (human VEGF165 [2]): 0.655 pM
- koff (human VEGF165 [2]): 1.79e-05 s⁻¹
- kon (human VEGF165 [2]): 2.73e+07 M⁻¹ s⁻¹
- T1/2 (human VEGF165 [3]): 3.5 h
B1: VEGFR1R2.FcΔC1(a) parent VEGF trap (dimer of SEQ ID NO:10) (Fc fusion)
chain: SDTGRPFVEMYSEIPEIIHMTEGRELVIPCRVTSPNITVTLKKFPLDTLIPDGKRIIWDSRKGFIISNATYKEIGLLTCEATVNGHLYKTNYLTHRQTNTIIDVVLSPSHGIELSVGEKLVLNCTARTELNVGIDFNWEYPSSKHQHKKLVNRDLKTQSGSEMKKFLSTLTIDGVTRSDQGLYTCAASSGLMTKKNSTFVRVHEK[here human IgG1 Fc without letters]
notes: also called full length VEGF trap; full-sized parent trap
